# Read counts are not given, so values of variants with three or more changes are uncertain.
# B1: LINE1-mini (parent)
# chain: GGCAGAGCUCAACACAGCGUGGCAAAGUGGCUGUGGCUAGACUGCC
# Variants of: B1
# Test: self-cleavage, relative activity (ratio to wild type); higher = more cleavage; in vitro, sequencing; the parent is a self-cleaving ribozyme
row,Variant,self-cleavage
1,C3G A11C G17A C23U G40C,0.01
2,C3G A4G G7C G17A G22U U32G,0.01
3,C3G C15G A16C A25C,0.04
4,C3G A16G C31A U32A C42U C46U,0.15
5,C3G G7A A14G U34G,0.19
6,C3G A12G A16G G21U C23A G33U G36U C37U U38A,0.09
7,C3G C10A C23U C31G C37G G44C,0
8,C3G A6C U20G G30C,0.03
9,C3G A12G G33C C42U,0.04
10,C3G C31U A39U,0.01
11,C3G G5C A16U,0.17
12,C3G A16G G27A G33U,0.08
13,C3G C10G C31G,0.02
14,C3G A6U C23U,0.41
15,C3G A6C A24G A39G,0.04
16,C3G C10A C42A C45A,0.01
17,C3G G5A A11U G19U A24C,0.01
18,C3G A4U U34A C45A,0.01
19,C3G G7A A25G,0.17
20,C3G G5U G44C,0.11
21,C3G A4G A24G U32A A41C,0.03
22,C3G A11C G21U C31G C37G,0.01
23,C3G A4U G21U G29U U43A,0.04
24,C3G A11G C15U G27A,0.09

row,Variant,self-cleavage
1,C3G A11U C23U C45G,0.01
2,C3G C31A U38G,0.04
3,C3G C8U A26G U28A G35A,0.05
4,C3G G7U C31A,0.15
5,C3G C15A G17U G19U,0.04
6,C3G C18G A26U,0.04
7,C3G C13G G17C A26U G33A,0.04
8,C3G A4U A12G,0.2
9,C3G A11U C23A C37G,0
10,C3G A12G C13A C45G,0.01
11,C3G A25C C42U,0.06
12,C3G G5A C23U,0.17
13,C3G C8A A14U G17A,0.15
14,C3G C18U U38G,0.01
15,C3G A6U C13A C18U G36C,0.27
16,C3G C15A C42A,0.25
17,C3G G7U C18G,0.29
18,C3G G7U A14U C23A A41C U43C G44A,0.1
19,C3G C13U U38A C42U,0.36
20,C3G A11C G30U,0.01
21,C3G A6G G33U C46G,0.01
22,C3G A41C U43A C45U,0.21
23,C3G G5C G29U A39G,0.06
24,C3G A4U G5A A6G G7A A26C C37U,0.08

row,Variant,self-cleavage
1,C3G A24U U32G C37A G40U,0.31
2,C3G A16C A41C,0.02
3,C3G A6U U38A,0.28
4,C3G G7U A41G,0.07
5,C3G C23U A26U,0.14
6,C3G G5U C18G,0.06
7,C3G C8G C15A U20G,0.03
8,C3G C23U U32A G40U,0.05
9,C3G C37G C45A,0.08
10,C3G A6G C15A,0.08
11,C3G C23U C37U,0.18
12,C3G C23U C37G,0.03
13,C3G A6G C10G C15U G27A C37A,0.01
14,C3G G5U A11G C15U G33U,0.08
15,C3G A4C G29U,0.14
16,C3G C31A G36U,0.15
17,C3G G7U A25G,0.15
18,C3G G7C G27U,0.04
19,C3G A4C A14U U34G,1.65
20,C3G A24G G33U,0.03
21,C3G A4G U28C G33C G36C C46U,0.01
22,C3G C10A A24U,0.09
23,C3G C23U A39G,0.37
24,C3G A16G C42U,0.05

row,Variant,self-cleavage
1,C3G A16G G30U C46G,0.01
2,C3G A6G U28C G40C,0.03
3,C3G G5C A12G G17A C18U G35U U38A,0.03
4,C3G A4G U9G G35A A41C,0.01
5,C3G G5U U20G C37A C42A G44A,0.33
6,C3G C8U A16C,0.04
7,C3G C10G A12U A14G A25G G35C,0.01
8,C3G A24C C45A C46G,0.02
9,C3G C13A G21C C45A C46A,0.07
10,C3G A6U C37A A41C,0.03
11,C3G A16C G33U G35A A41U U43C,0
12,C3G A14G G21C G33U G36C,0.05
13,C3G A12C U32C A39G,0.02
14,C3G C13G C15A A24G G30U G44U,0.1
15,C3G C10U A11U A14G G21A A25U C37A,0.03
16,C3G C10U C23A A25C G33A,0.04
17,C3G C8G A16U G19U A25U,0.06
18,C3G G7U C18A G33C,0.04
19,C3G G5U U28C C42A,0.23
20,C3G G7A G22C G30A C31A U34G,0.19
21,C3G C10A G33A,0.02
22,C3G A25U A41G,0.05
23,C3G C15U G40U,0.3
24,C3G A6G C23U G29C,0.01

row,Variant,self-cleavage
1,C3G A4G G5A G33A,0.08
2,C3G C13G G29U C45U,0.12
3,C3G G5C U38G C45U,0.03
4,C3A U32G C45G,0.19
5,C3G A24U G33C G35A C42A,0.03
6,C3G G5A G7A C13G C15A,0.13
7,C3G A14U G21U,0.27
8,C3G A14U U32C G36A,0.04
9,C3G G5C G17U U20G A25G G29C C31U,0.52
10,C3G A26U G27U U34G C46U,0.09
11,C3G A39C G44C,0.11
12,C3G A11G G36U,0.03
13,C3G A4C G21A U28C,0.15
14,C3G C8A C15G G33A,0.36
15,C3G A12G U20G C42G C46G,0.02
16,C3G A12C C23A G36A,1.02
17,C3G A6C C18U G27A U28A G40A,0.02
18,C3G C13A G17A G29A,0.13
19,C3G A4U G5A C46A,0.79
20,C3G G7A C15A C31U U38G,0.09
21,C3G C10A U20A U34C C37G G40A,0.01
22,C3G A14C C15U A24C G27U G29U G33U,0.09
23,C3G A14G C31A G35U C42G,0.02
24,C3G G7C C13U G33C G40A G44U C45U,0.02

row,Variant,self-cleavage
1,C3G A12G G21C A26G,0.03
2,C3G C18A U20A A24G,0.02
3,C3G A25C A26U A41G,0.03
4,C3G C8U A12G,0.05
5,C3G G5U A41U,0.1
6,C3G G5U C31U C37U U38G,0.03
7,C3G A6U C8A C18G G29U C42A,0.2
8,C3G C10A G36U G44U,0.01
9,C3G G5A C10U U20A U34A C46G,0.03
10,C3G G5U G19U G36U,0.09
11,C3G A6U A14C G29A,0.03
12,C3G C8U A11G U43A C46U,0.06
13,C3G A6C A11C C37U,0.01
14,C3G C13A C23A C31A U43A,0.08
15,C3G C18U U20C,0.1
16,C3G C31U U43A G44U,0.04
17,C3G A12C G40U U43A,0.02
18,C3G C18A G19A U32G G35U G36C,0.01
19,C3G C10A A25U G27A G40U,0.02
20,C3G C10U C45A,0.13
21,C3G C18G G22C G33A U38C,0.04
22,C3G C13U G29A A39G G40A A41C,0.38
23,C3G A6U A16C G27U G35U A41G,0.11
24,C3G C13A A25G U28G U43C C46G,0.04

row,Variant,self-cleavage
1,C3G A16U U20C G29U,0.15
2,C3G G5A U38C C45G,0.02
3,C3G A6G C13G A16U U20G,0.04
4,C3G G5U U20A A26G G30A C42U,0.11
5,C3G A11C A12G C23G A24G A39G,0.01
6,C3G C8A C18U U32C,0.02
7,C3G A4C G27U A41G C42U,0.02
8,C3G A6C G44A C45A,0.14
9,C3G C18U C37G C46U,0.03
10,C3G C18A C42G,0.04
11,C3G C13U G17C G36C,0.26
12,C3G C23U U38C G44A,0.13
13,C3G A6C U9C,0.01
14,C3G C10U G17U G27A,0.02
15,C3G A39G G40C,0.07
16,C3G C10A G21U U43C C45A,0.02
17,C3G C8U U9G U20G G36C,0.31
18,C3G C10G A14G,0.05
19,C3G C18U A41C,0.05
20,C3G A6U G29C G35U C37G A39U,0.02
21,C3G C10G C42G C46A,0.02
22,C3G A24G U32G,0.06
23,C3G C13U C31G,0.08
